The structures appear in SMILES notation. Read-outs that look alike come from different tables or passages of the source.

In patent US12545673B2, “Imidazopyridine derivative and pharmaceutical composition comprising same as active ingredient” (TSD LIFE SCIENCES CO., LTD., priority 2019, dated 2026) one finds IC50 data, which are given here for 9 compounds.

This assay relates to human gastric cancer cell line HS746T. Kind of assay: cells.

As for `CCS(=O)(=O)N1CC[C@H](Nc2c(Br)cnc3nc(-c4cc(C)n(-c5ccc(NC(=O)CN6CCN(C)CC6)cc5C)c4C)[nH]c23)C1` [Example 75, N-(4-(3-(6-bromo-7-(((S)-1-(ethylsulfonyl)pyrrolidine-3-yl)amino)-1H-imidazo[4,5-b]pyridine-2-yl)-2,5-dimethyl-1H-pyrrol-1-yl)-3-methylphenyl)-2-(4-methylpiperazine-1-yl) acetamide], half-maximal inhibition (HS746T, 0.1-30 μM, CCK-8) (IC50) required 6.23 µM. With `CCS(=O)(=O)N1CC[C@H](Nc2c(Br)cnc3nc(-c4cc(C)n(-c5cc(NC(=O)CN6CCN(C)CC6)ccc5C)c4C)[nH]c23)C1` [Example 76, N-(3-(3-(6-bromo-7-(((S)-1-(ethylsulfonyl)pyrrolidine-3-yl)amino)-1H-imidazo[4,5-b]pyridine-2-yl)-2,5-dimethyl-1H-pyrrol-1-yl)-4-methylphenyl)-2-(4-methylpiperazine-1-yl) acetamide], the IC50 turned out to be 7 µM. On to `CCS(=O)(=O)N1CC[C@H](Nc2c(Br)cnc3nc(-c4cc(C)n(-c5ccc(NC(=O)CN6CCOCC6)cc5C)c4C)[nH]c23)C1` [Example 77, N—(4-(3-(6-bromo-7-(((S)-1-(ethylsulfony)pyrolidine-3-yl)amino)-1H-imidazo[4,5-b]pyridine-2-yl)-2,5-dimethyl-1H-pyrrol-1-yl)-3-methylphenyl)-2-morpholinoacetamide], for which the 50% inhibitory concentration (IC50) is > 10 µM.

In turn, `CCS(=O)(=O)N1CC[C@H](Nc2c(Br)cnc3nc(-c4cc(C)n(-c5cc(NC(=O)CN6CCOCC6)ccc5C)c4C)[nH]c23)C1` [Example 78, N-(3-(3-(6-bromo-7-(((S)-1-(ethylsulfonyl)pyrrolidine-3-yl)amino)-1H-imidazo[4,5-b]pyridine-2-yl)-2,5-dimethyl-1H-pyrrol-1-yl)-4-methylphenyl)-2-morpholinoacetamide] gave a half-inhibitory concentration (IC50) (HS746T, 0.1-30 μM, CCK-8) of 7.33 µM. Same read-out and setting: the result for `CCS(=O)(=O)N1CC[C@H](Nc2c(Br)cnc3nc(-c4cc(C)n(-c5cccc(NC(=O)CCN(C)C)c5C)c4C)[nH]c23)C1` [Example 79] reads 3.06 µM. Take `CCS(=O)(=O)N1CC[C@H](Nc2c(Br)cnc3nc(-c4cc(C)n(-c5cc(NC(=O)CCN(C)C)ccc5C)c4C)[nH]c23)C1` [Example 80]: the half-maximal inhibitory concentration (IC50) was 6.51 µM. In the case of `CCS(=O)(=O)N1CC[C@H](Nc2c(Br)cnc3nc(-c4cc(C)n(-c5cccc(C(=O)N6CCN(C)CC6)c5C)c4C)[nH]c23)C1` [Example 81, (3-(3-(6-bromo-7-(((S)-1-(ethylsulfonyl)pyrrolidine-3-yl)amino)-1H-imidazo[4,5-b]pyridine-2-yl)-2,5-dimethyl-1H-pyrrol-1-yl)-2-methylphenyl) (4-methylpiperazine-1-yl) methanone], for the setting “HS746T, 0.1-30 μM, CCK-8”, the concentration for half-maximal inhibition (IC50) is > 10 µM. Same read-out and setting: as for `CCS(=O)(=O)N1CC[C@H](Nc2c(Br)cnc3nc(-c4cc(C)n(-c5cccc(C(=O)N6CCOCC6)c5C)c4C)[nH]c23)C1` [Example 83, (3-(3-(6-bromo-7-(((S)-1-(ethylsulfonyl)pyrrolidine-3-yl)amino)-1H-imidazo[4,5-b]pyridine-2-yl)-2,5-dimethyl-1H-pyrrol-1-yl)-2-methylphenyl) (morpholino) methanone], the figure is 8.59 µM; as for `CCS(=O)(=O)N1CC[C@H](Nc2c(Br)cnc3nc(-c4cc(C)n(-c5cccc(NC(=O)CN6CCN(C)CC6)c5C)c4C)[nH]c23)C1` [Example 87, N-(3-(3-(6-bromo-7-(((S)-1-(ethylsulfonyl)pyrrolidine-3-yl)amino)-1H-imidazo[4,5-b]pyridine-2-yl)-2,5-dimethyl-1H-pyrrol-1-yl)-2-methylphenyl)-2-(4-methylpiperazine-1-yl) acetamide], 5.71 µM.
